This assay has as its system TYKNU. The assay can be described thus: fractional viability relative to vehicle; TYKNU is a high-grade serous ovarian cancer line; higher = less growth inhibition. The settings on record: 72 h, genotype: OPA1 knockout (sgOPA1 #2). In short, it runs like this: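 TYKNU control cells or lentiCRISPRv2 knockout derivatives were plated at 500 cells per well in duplicate into drug-stamped 384-well plates holding a ~2100-compound library at 2 or 10 μM. Culture was in RPMI 1640 with 10% FBS at 37 °C in 5% CO2, with 72 h of drug treatment. Viability was measured by Cell Titer Glo luminescence, and the averaged duplicate treatment wells were normalised to duplicate control wells at the same plate position.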

Counter-ions that a name gives are not always drawn. Over roughly 2,000 compounds, “fractional viability relative to vehicle” has its median near 0.92; the lowest 2% begin near 0.11. Some of the results follow.

With `CC[C@H]1OC(=O)[C@H](C)[C@@H](O[C@H]2C[C@@](C)(OC)[C@@H](O)[C@H](C)O2)[C@H](C)[C@@H](O[C@@H]2O[C@H](C)C[C@H](N(C)C)[C@H]2O)[C@](C)(O)C[C@@H](C)/C(=N\OCOCCOC)[C@H](C)[C@@H](O)[C@]1(C)O` [Roxithromycin], the fractional viability is 1.09 (2uM) and 0.969 (10uM).
In the same order, the values of `O=C1CN2Cc3c(ccc(Cl)c3Cl)N=C2N1` [Anagrelide HCl] are 1.04 and 0.917.
With `CN(C)Cc1c(C(=O)NCCOc2ccc(C(=O)NO)cc2)oc2ccccc12`, the fractional viability turned out to be 0.425 (2uM) and 0.261 (10uM).
In the same order, the values of `CN1CC[C@H](c2c(O)cc(O)c3c(=O)cc(-c4ccccc4Cl)oc23)[C@H](O)C1` [Flavopiridol HCl] are 0.538 and 0.814.
Regarding `CN1CC[C@H](c2c(O)cc(O)c3c(=O)cc(-c4ccccc4Cl)oc23)[C@H](O)C1` [Flavopiridol (Alvocidib)], the fractional viability runs as follows: (2uM) 0.602; (10uM) 0.742.
`COc1ccc(-c2cc(=O)c3c(O)cc(O)cc3o2)cc1O` [Diosmetin]: the fractional viability is, setting by setting: (2uM) 1.45; (10uM) 1.45.
In turn, `Nc1nc(Cl)nc2c1ncn2[C@@H]1O[C@H](CO)[C@@H](O)[C@@H]1F` [Clofarabine] came in with a fractional viability (2uM) of 0.694 and a fractional viability (10uM) of 0.562.
With `CC(C)(C)NC[C@H](O)COc1nsnc1N1CCOCC1` [Timolol Maleate], the fractional viability is, setting by setting: (2uM) 0.992; (10uM) 0.918.
On the same counts, the results for `Cc1ccc(C(=O)Nc2ccc(CN3CCN(C)CC3)c(C(F)(F)F)c2)cc1C#Cc1cnc2cccnn12` are 0.67 and 0.106.
In the same order, the values of `O=C(Nc1cccc2c(=O)cc(-c3nnn[nH]3)oc12)c1ccc(OCCCCc2ccccc2)cc1` [Pranlukast] are 1.12 and 0.952.
As for `COc1cc(OC)c2c(=O)[nH]c(-c3cc(C)c(OCCO)c(C)c3)nc2c1`, the fractional viability runs as follows: (2uM) 1.1; (10uM) 1.22.
In the same order, the values of `O=C(c1cccc(Cl)c1F)N1CCN(Cc2cccc(Nc3nccs3)n2)CC1` are 0.727 and 0.767.
In the same order, the values of `CC(C)[C@H]1C(=O)N[C@@H](CCCNC(=N)N)C(=O)NCC(=O)N[C@@H](CC(=O)O)C(=O)N[C@H](Cc2ccccc2)C(=O)N1C` [Cilengitide] are 0.735 and 0.827.
In the same order, the values of `Cn1cc(-c2ccc(F)c(C(F)(F)F)c2)nc1C1CCN(c2ncnc3[nH]ncc23)CC1` are 0.855 and 0.528.
Take `O=C(Nc1c[nH]nc1-c1nc2ccc(CN3CCOCC3)cc2[nH]1)NC1CC1`: the fractional viability is, setting by setting: (2uM) 0.902; (10uM) 0.755.
In the case of `CCOC(=O)[C@H](CCc1ccccc1)N[C@H]1CCc2ccccc2N(CC(=O)O)C1=O` [Benazepril HCl], the fractional viability amounted to 1.11 (2uM) and 1.11 (10uM).
In the case of `COC1=C(OC)C(=O)C(CCCCCCCCCCO)=C(C)C1=O` [Idebenone], the fractional viability was 0.894 (2uM) and 1.03 (10uM).
In the same order, the values of `CCOC(=O)c1ccc(OC(=O)CCCCCNC(=N)N)cc1` [Gabexate Mesylate] are 0.918 and 1.05.

These data come from the supplement of paper PMC5919970.
